# Reference: PMC4336329 (PLoS ONE, 2015)
# Out of some 310,000 compounds screened, about 14,000 (4.5%) showed an effect of 50% or more. Effects have a minus sign here. This is one part of the list.
# Biological target: human ether-à-go-go-related gene (hERG) potassium channel (human, UniProt Q12809)
# Experiment: primary screen, population patch clamp on CHO cells stably expressing hERG
# 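Further: peak tail current of the secondary pulse compared with the same well before compound.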
# human ether-à-go-go-related gene (hERG) potassium channel, sequence (Q12809 whole entry, looked up): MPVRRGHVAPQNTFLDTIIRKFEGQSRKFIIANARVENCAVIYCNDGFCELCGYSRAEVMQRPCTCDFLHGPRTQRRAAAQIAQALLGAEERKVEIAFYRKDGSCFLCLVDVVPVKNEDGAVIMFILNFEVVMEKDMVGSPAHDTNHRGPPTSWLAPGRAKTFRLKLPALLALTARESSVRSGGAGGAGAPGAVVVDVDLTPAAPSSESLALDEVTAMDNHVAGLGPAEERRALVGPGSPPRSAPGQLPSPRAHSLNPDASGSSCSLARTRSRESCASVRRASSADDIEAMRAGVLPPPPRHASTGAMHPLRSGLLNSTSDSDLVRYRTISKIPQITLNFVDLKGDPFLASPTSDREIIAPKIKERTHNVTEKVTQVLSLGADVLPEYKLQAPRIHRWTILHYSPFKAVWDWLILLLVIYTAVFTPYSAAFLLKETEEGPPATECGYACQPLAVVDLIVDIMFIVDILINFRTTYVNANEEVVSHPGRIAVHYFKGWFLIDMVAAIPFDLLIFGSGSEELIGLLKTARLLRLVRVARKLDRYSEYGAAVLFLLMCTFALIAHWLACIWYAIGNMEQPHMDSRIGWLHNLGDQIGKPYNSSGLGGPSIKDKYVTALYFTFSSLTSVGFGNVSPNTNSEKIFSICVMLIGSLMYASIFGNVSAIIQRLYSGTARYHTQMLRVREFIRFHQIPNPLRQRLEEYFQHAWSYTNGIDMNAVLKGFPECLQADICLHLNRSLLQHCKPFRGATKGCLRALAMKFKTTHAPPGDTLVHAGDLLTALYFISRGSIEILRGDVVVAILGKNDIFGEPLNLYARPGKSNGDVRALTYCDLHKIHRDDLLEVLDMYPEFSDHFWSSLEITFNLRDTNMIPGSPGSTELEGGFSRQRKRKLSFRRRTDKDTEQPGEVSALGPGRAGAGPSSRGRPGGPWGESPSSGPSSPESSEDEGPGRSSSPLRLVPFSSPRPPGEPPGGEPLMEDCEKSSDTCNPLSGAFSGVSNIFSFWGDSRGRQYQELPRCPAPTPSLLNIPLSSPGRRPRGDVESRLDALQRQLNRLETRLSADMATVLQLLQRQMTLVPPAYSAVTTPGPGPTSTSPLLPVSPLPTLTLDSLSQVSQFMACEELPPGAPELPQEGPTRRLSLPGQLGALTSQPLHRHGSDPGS
row,Compound,"hERG current change (%, negative = inhibition) at 10uM [%]"
1,CC1(C)Cc2cccc(OCC(=O)OCc3nnc(-c4ccc([N+](=O)[O-])cc4)o3)c2O1,-40.5
2,CC1=CC(C)(C)Nc2ccc(OC(=O)C(C)N3C(=O)c4ccccc4C3=O)cc21 (centres unmarked),-12.3
3,CCCC[C@@H]1CNC(=S)N1CC1CCCCC1,6.32
4,COc1ccccc1S(=O)Cc1ccc(C(=O)O)o1 (centres unmarked),1.57
5,CSc1ccc(C#N)cc1NC(=O)c1ccc(Cl)cc1,-0.0481
6,Clc1ccc(-c2cn3cc(Cl)ccc3n2)cc1,18.4
7,O=S1(=O)[C@H]2C[C@@H]3C=C[C@@]2(CN1Cc1ccccc1F)O3,17.8
8,CNC(=S)NNC(=O)c1sccc1OCc1cccc(C(F)(F)F)c1,17.5
9,Cc1ccc(/C=N\NC(=O)/C(=C\Nc2nccc(C)n2)NC(=O)c2ccccc2)cc1,-9.72
10,CCC(=O)Nc1ccc(C(=O)NNC(=O)Cc2ccccc2)cc1,-13.3
11,O/N=C1\CCCc2oc3c(c21)CCCC3,3.38
12,COc1ccc2cnn(Cc3ccccc3)c(=O)c2c1OC,15.2
13,COC(=O)c1ccccc1NC(=O)CSc1ncn[nH]1,5.62
14,CCOC(=O)CSc1nnc(NC(=O)NC(C)C)s1,5.74
15,CCOc1cccc(CN2CCCC(C(=O)Nc3cccc(-n4cccn4)c3)C2)c1 (centres unmarked),-56.3
16,C=CCn1c(SCc2ccc(C#N)cc2)nnc1-c1cccc(OC)c1,-67.4
17,CCOc1ccc(CCNC(=O)CN2CCN(Cc3ccccc3C)C2=O)cc1OCC,-12
18,Cn1c(C(=O)NC2CCCCC2)cc2c(=O)n3ccccc3nc21,4.32
19,CCC1=NN2C(=N)/C(=C\c3cccn3-c3cccc(Cl)c3)C(=O)N=C2S1,-11.5
20,CC(=O)Nc1c(C(=O)N2CCOCC2)sc2nc3c(cc12)COC(C)(C)C3,8.68
21,COc1ccc(S(=O)(=O)NCCc2cn3nc(C)c(C)nc3n2)cc1,20.2
22,CN(C)c1ccc(C(=S)N2CCN(c3ccccc3)CC2)cc1,12.6
23,Cc1ccc(NC(=O)CCN2C(=O)C3CCCCC3C2=O)c(O)c1 (centres unmarked),11.9

row,Compound,"hERG current change (%, negative = inhibition) at 10uM [%]"
1,O=C(CCOc1ccccc1)Nc1ccnn1C1CCN(C(=O)CCC(F)(F)F)CC1,3.61
2,COc1ccc(C2CC2/C(=N/OC(=O)c2cccs2)c2ccccc2)cc1 (centres unmarked),4.13
3,O=C(CN1CCN(Cc2ccccc2)CC1)c1c[nH]c2ccccc12,-56.5
4,CCN(CC)S(=O)(=O)c1ccc(NC(=O)COC(=O)CN2C(=O)c3ccccc3C2=O)cc1,-31.2
5,FC(F)C(F)(F)C(F)(F)C(F)(F)c1cc(-c2ccccc2)n[nH]1,-16.9
6,COc1cc(OC)c(OC)cc1/C=N/NC(=O)c1ccc(=O)n(C)c1,3.8
7,CC(OC(=O)Cc1c(F)cccc1Cl)C(=O)NCCC1=CCCCC1 (centres unmarked),-25.7
8,CCN(CC)C(=O)Cn1c(=O)n(-c2ccc(CC(=O)NCc3ccccc3)cc2)c(=O)c2sccc21,18
9,CNC(=S)N1CCc2cc(OC)c(OC)cc2C1,-3.93
10,Cc1ccc(CNC(=O)CN2C(C)CCCC2C)cc1 (centres unmarked),-0.842
11,O=C(C(=O)N1CCOCC1)c1cn(Cc2ccccc2F)c2ccccc12,10.8
12,O=C(Nc1cccc(C(=O)O)c1)/C(=C/c1ccc([N+](=O)[O-])cc1)NC(=O)c1ccccc1,-5.36
13,Cn1cc(CC(=O)NCCCN2CCCC2=O)c2ccccc21,-3.58
14,Cc1ccccc1NS(=O)(=O)c1cc(C(=O)NCc2ccco2)ccc1C,-20.3
15,CN(C)C(=O)[C@H]1C[C@H]1[C@@H](O)[C@H](CO)NC(=O)[C@H](COCc1ccccc1)NC(=O)OC(C)(C)C,11.3
16,COc1cccc(-c2nnn(CC(C)=O)n2)c1,-2.29
17,CN(C)S(=O)(=O)c1ccc(-c2csc(-c3cccnc3)n2)cc1,-34.6
18,S=C(NCc1ccncc1)Nc1ccc(Cl)cc1,-0.853
19,COc1ccc(/C=C2\CN(Cc3ccccc3)C/C(=C\c3ccc(OC)c(O)c3)C2=O)cc1O,9.53
20,CCC(=O)N1CCc2cc(Br)cc(S(=O)(=O)Nc3c(C)n(C)n(-c4ccccc4)c3=O)c21,5.02
21,Cc1ccccc1CSCC(=O)NC(=O)NC(C)(C)C,-15.6
22,CC(=O)c1ccc(N2CCN(C(=O)c3ccc(OCc4c(C)noc4C)cc3)CC2)cc1,4.7
23,Cc1ccc(NC(=O)C2CCN(S(=O)(=O)c3cnc[nH]3)CC2)nc1,9.52

row,Compound,"hERG current change (%, negative = inhibition) at 10uM [%]"
1,CCN(C(=O)CSc1nnc(-c2ccncc2)n1C)C1CCS(=O)(=O)C1 (centres unmarked),15.8
2,COc1ccc(Cn2c(C)c(C)c(C#N)c2NC(=O)Nc2cccc(C)c2)cc1,10.2
3,N#Cc1nc(-c2ccco2)oc1N1CCc2ccccc2C1,11.2
4,CCN(CC)C(=O)CSc1nc(O)c(Cc2ccc(OC)cc2)c(=O)[nH]1,11.3
5,CCOc1ccc(CCNC(=O)C(CC)n2nc(C)n3c(cc4sccc43)c2=O)cc1OCC (centres unmarked),-22.5
6,Cc1cc2nc(/N=C(\N)NC(=O)C(C)C)nc(C)c2cc1C,18.8
7,C[C@@H]1CN(Cc2nc(-c3ccc(Cl)cc3)no2)C[C@H](C)O1,-3.01
8,CC1=CCC2C(=O)N(c3cccc(C(=O)Nc4ccc(Cl)cc4)c3)C(=O)C2C1 (centres unmarked),-17
9,COc1cccc(C(=O)N2CCN(CCCc3ccccc3)CC2)c1OC.O=C(O)C(=O)O,-46.7
10,COC(=O)[C@@H]1C[C@H]2CC[C@H](O)C[C@H]2N1Cc1ccc(C)s1,5.65
11,CC(C)(C)OC(=O)NCCc1nnc(SCc2cccc(Cl)c2)o1,-1.84
12,CN(Cc1cccc([N+](=O)[O-])c1)Cc1cccc2ccccc12,11
13,COc1ccc(C2=NS(=O)(=O)N(C)C(C(=O)N3CCC(C)CC3)=C2)cc1,-41.2
14,Cc1ccccc1C(=O)c1cccn1CC(=O)NCc1ccc2c(c1)OCO2,14
15,COC(CNC(=O)C1CCCN1C(=O)OCc1ccccc1)OC (centres unmarked),5.41
16,COc1ccc2nc3cccc(OC)c3nc2c1,12.7
17,CN(Cc1nc2ccccc2c(=O)[nH]1)C(=O)COc1ccccc1Cc1ccccc1,-43.3
18,COc1ccc(C(C(=O)Nc2ccc(C(C)C)cc2)N(C)C(=O)c2ccc(=O)[nH]c2)cc1 (centres unmarked),-1.59
19,CC(C)CCC(C)NC(=O)Cc1ccc(S(=O)(=O)N2CCOCC2)s1 (centres unmarked),24.7
20,CCOc1ccccc1-c1nc(-c2ccc(NC(=O)c3ccc(Br)o3)cc2)no1,1.12
21,CC(C)n1nnnc1SCC(=O)NCCc1ccccc1,10.1
22,O=C(NCCn1cc(SCC(=O)N2CCOCC2)c2ccccc21)c1ccccc1,-7.79
23,O=C(Nc1ccc2c(c1)CCC2)c1ccccc1,9.66

row,Compound,"hERG current change (%, negative = inhibition) at 10uM [%]"
1,O=C1C2C3C=CC(C4CC34)C2C(=O)N1/N=C/c1ccc([N+](=O)[O-])o1 (centres unmarked),-4.53
2,CCC1CCc2sc(C(=O)NCC(c3ccc(OC)cc3)N3CCOCC3)cc2C1 (centres unmarked),-5.82
3,Nc1[nH]c(=O)ncc1F,9.84
4,CCOCc1nnc(NC(=O)C2CC(=O)N(CCc3ccc(F)cc3)C2)s1 (centres unmarked),5.97
5,O=S(=O)(Cc1noc(-c2ccc(Cl)cc2)n1)Cc1ccco1,-4.77
6,Cc1cc(NS(=O)(=O)c2ccc(NC(=O)/C=C/c3ccco3)cc2)nc(C)n1,-1.13
7,O=C(Nc1nnc(Cc2ccccc2)s1)c1ccccc1,0.319
8,COc1ccccc1NS(=O)(=O)c1ccc(O)c(C(N)=O)c1,5.43
9,CN1CCC(C2(O)c3ccccc3CCc3ccccc32)CC1,-19.2
10,O=C(N=C1SC2CS(=O)(=O)CC2N1Cc1ccccc1Cl)C1CCCO1 (centres unmarked),21.7
11,CC1CCC(NC(=O)C2CCN(c3nc4ccccc4s3)CC2)CC1 (centres unmarked),10.2
12,O=C(CCCCCNc1nc(=S)[nH]c2ccccc12)NCCC1=CCCCC1,-1.66
13,Cc1c(C(=O)O)nnn1-c1ccccc1,10
14,O=C(Nc1cccnc1Cl)c1cc(-c2ccc(O)cc2)on1,23.2
15,Cc1ccc(OCCCC(=O)NCc2ccco2)c(C)c1,0.0372
16,O=C(CSc1nnc(-c2ccc(Cl)cc2)n1-c1ccccc1)N/N=C/c1ccccc1C(=O)O,12.6
17,CCn1c(O)c(/C=N/N=C2CCCC2)c2ccc(C3=NNC(=O)CC3)cc21,-3.53
18,Cc1nn(-c2ccccc2)c2sc(C(=O)N3CCOCC3)cc12,-19
19,CN(C(=O)COC(=O)CNC(=O)c1ccccc1F)C1CCCCC1,0.188
20,Cl.Nc1ccc2c(c1)OCCOCCOCCOCCOCCO2,-33.5
